The campaign covered roughly 220,000 compounds. About 5,700 (2.6%) were called active. This list was built around the results that the source calls inconclusive (neither active nor inactive); the mix of calls is not that of the screen. Calls follow the shape of the dose curve; as a rule, active = well fitted inhibition curve with a large enough effect; inconclusive = small, poorly fitted or top-dose-only effect; inactive = no such curve, though single readings can be large or run the other way. Where the call is inconclusive, the potency comes from a doubtful curve fit.
Target: Lysine-specific demethylase 5B (Homo sapiens) (UniProt Q9UGL1)
Chain of UniProt Q9UGL1 (Q9UGL1 whole entry, looked up): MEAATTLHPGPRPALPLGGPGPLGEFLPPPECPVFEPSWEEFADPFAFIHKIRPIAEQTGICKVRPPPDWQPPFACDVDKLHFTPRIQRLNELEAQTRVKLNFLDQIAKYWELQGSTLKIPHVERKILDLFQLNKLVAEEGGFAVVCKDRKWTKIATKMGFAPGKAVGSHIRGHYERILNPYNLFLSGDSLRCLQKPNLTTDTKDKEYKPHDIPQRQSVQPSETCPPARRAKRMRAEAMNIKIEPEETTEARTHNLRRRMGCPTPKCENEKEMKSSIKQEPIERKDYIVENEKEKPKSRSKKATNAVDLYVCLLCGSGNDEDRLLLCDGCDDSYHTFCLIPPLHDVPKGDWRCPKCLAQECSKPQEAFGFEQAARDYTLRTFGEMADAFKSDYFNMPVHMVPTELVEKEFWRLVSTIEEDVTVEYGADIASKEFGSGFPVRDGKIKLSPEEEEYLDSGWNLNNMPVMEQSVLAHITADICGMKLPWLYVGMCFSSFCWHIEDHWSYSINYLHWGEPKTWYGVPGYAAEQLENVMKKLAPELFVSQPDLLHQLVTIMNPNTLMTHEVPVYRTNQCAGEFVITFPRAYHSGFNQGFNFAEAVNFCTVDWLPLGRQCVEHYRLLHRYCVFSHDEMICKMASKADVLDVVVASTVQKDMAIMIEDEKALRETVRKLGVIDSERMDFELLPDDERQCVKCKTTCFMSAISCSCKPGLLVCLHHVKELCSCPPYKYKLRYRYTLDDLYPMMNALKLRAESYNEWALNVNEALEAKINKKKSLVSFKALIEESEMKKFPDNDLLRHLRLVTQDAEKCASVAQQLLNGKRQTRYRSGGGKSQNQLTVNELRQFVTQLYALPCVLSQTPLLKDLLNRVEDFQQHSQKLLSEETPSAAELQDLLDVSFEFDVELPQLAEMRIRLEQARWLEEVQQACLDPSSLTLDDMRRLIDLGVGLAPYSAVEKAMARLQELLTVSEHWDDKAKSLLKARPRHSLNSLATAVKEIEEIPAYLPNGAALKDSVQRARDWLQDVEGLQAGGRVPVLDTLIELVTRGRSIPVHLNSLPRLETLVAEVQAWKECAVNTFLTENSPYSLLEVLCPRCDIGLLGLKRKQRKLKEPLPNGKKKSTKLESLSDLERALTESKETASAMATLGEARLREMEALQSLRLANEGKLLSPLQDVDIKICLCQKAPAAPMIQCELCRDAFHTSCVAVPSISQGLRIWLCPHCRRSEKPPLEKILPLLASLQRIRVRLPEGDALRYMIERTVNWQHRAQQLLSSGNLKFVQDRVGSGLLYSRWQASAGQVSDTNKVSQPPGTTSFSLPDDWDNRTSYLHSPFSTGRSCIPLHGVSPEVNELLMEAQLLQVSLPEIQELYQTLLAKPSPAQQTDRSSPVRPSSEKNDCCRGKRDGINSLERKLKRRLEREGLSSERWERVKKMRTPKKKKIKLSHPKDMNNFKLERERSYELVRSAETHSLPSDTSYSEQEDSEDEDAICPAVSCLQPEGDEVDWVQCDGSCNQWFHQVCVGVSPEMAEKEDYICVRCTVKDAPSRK
Experiment: Primary screen for KDM5B Histone Demethylases FDH-coupled qHTS; also: nearly all actives have a fitted effect of over 70% in size; as to activity change, negative = inhibition: 0% is about no effect
Conditions: FDH-coupled NADH fluorescence (FDH is formaldehyde dehydrogenase); activity change, negative = inhibition: at 57.7 µM (top of the series) unless noted
Procedure, shortened: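 Inhibition is measured as reduced NADH fluorescence generation from FDH coupling to formaldehyde release. Truncated KDM5BΔAP at 200 nM final acts on H3K4me3 peptide (12.5 µM in substrate mix) in pH 7.5 HEPES buffer with Tween-20, 30 min, room temperature.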
Potency is read from the fitted curve at half-maximal effect; tags tell the direction and shape of the fitted curve.

Row | SMILES | Potency | activity change, negative = inhibition
1 | CN1C(=O)CO[C@H](c2ccc(NC(=O)C3CCCC3)cc2)[C@H]1CO | inconclusive: 11.2 µM [inhibitor, single point] | –
2 | CC(C)c1nc(CNC(=O)c2ccc(N(C)Cc3ccccn3)nc2)no1 | inconclusive: 3.98 µM [inhibitor, partial curve] | –
3 | O=C1NC(=NC2CCCC2)C2(CCCN(CC3CCCCC3)C2)N1c1cc(F)cc(F)c1 (stereo not drawn) | inconclusive: 39.8 µM [inhibitor, partial curve, poor fit] | –
4 | COc1ccccc1CCNC(=O)c1ccc(-c2nc(CSc3ccc(C)cc3)c(C)o2)cc1 | inconclusive: 31.6 µM [inhibitor, partial curve, poor fit] | –
5 | O=c1[nH]cnc2ncc(-c3ccc(O)cc3)nc12 | – | inactive: -2.18%
6 | O=C(CSc1nnc(-c2ccccc2F)o1)Nc1ccc(N2CCOCC2)cc1 | inconclusive: 39.8 µM [inhibitor, single point] | –
7 | Cc1ccc(C)c(NC(=O)c2cc(S(=O)(=O)N3CCCc4ccccc43)ccc2F)c1 | inconclusive: 25.1 µM [inhibitor, single point] | –
8 | CN1C[C@@H](NC(=O)c2ccc3c(c2)OCO3)C[C@H]1c1nc(-c2ccc(Cl)cc2)no1 | active: 31.6 µM | –
9 | CN(CC1CCOCC1)C(=O)c1ccc(Br)cc1 | – | inactive: -14.5%
10 | O=C(c1cc(F)ccc1F)N1CC(Oc2ccc(-c3nc(-c4ccccc4)no3)cc2)C1 | – | inactive: -28.7%
11 | CCOc1ccc(-c2ncnn2-c2sc3c(c2C#N)CCCCC3)cc1 | inconclusive: 35.5 µM [inhibitor, single point] | –
12 | Cc1oc(-c2ccc(C(=O)NCc3ccc(Cl)cc3)cc2)nc1CS(=O)(=O)c1ccccc1 | inconclusive: 17.8 µM [inhibitor, partial curve, poor fit] | –
13 | Fc1ccc(-c2nc3cc(Cl)ccc3o2)cc1 | inconclusive: 14.1 µM [inhibitor, partial curve, poor fit] | –
14 | C[C@H](C(=O)N1CCCC1)C1CC[C@@]2(C)Cc3sc(NC(=O)C4CC4)nc3[C@@H](C)[C@@H]2[C@H]1O (stereo partly drawn) | inconclusive: 39.8 µM [inhibitor, single point] | –
15 | CCOc1ccccc1C(=O)NC1CCN(c2cc(-c3ccc(OC)cc3)[nH]n2)C1 (stereo not drawn) | active: 12.6 µM | –
16 | CCCN(Cc1nnc(-c2ccccc2Cl)o1)C(=O)c1ccc(C#N)cc1 | – | inactive: -16.1%
17 | CCC(C(=O)NCCn1ccn2nc(-c3ccc(F)cc3)cc2c1=O)c1ccccc1 (stereo not drawn) | – | inactive: -11.3%
18 | COc1ccc(C(C(=O)O)N2CCN(c3nc(C)cnc3C)CC2)cc1 (stereo not drawn) | inconclusive: 25.1 µM [inhibitor, single point] | –
19 | COc1ccc(CNC(=O)COC(=O)Cc2n[nH]c(=O)c3ccccc23)cc1 | – | inactive: -14.1%
20 | Cc1cccc(C(=O)NC2CCN(c3cn[nH]c(=O)c3)CC2)c1 | – | inactive: 11.7%
21 | COc1ccc(C(=O)N2CCc3ccc(C(=O)NCc4cccc(C)c4)cc32)cc1 | inconclusive: 22.4 µM [inhibitor, single point] | –
22 | COc1ccc(-c2ccc3nnc(CNC(=O)c4cccc(OC)c4)n3n2)cc1 | active: 28.2 µM | –

Row | SMILES | Potency | activity change, negative = inhibition
23 | Cc1cnc2c(S(=O)(=O)N3CCN(CC(C)C)CC3)cccc2c1 | – | inactive: 13.7%
24 | O=C1NC(C(=O)NCc2cccc(C(F)(F)F)c2)Cn2cccc21 (stereo not drawn) | inconclusive: 35.5 µM [inhibitor, partial curve, poor fit] | –
25 | CCN(CC)CCNC(=O)c1cc(-c2ccco2)nc2ccccc12 | inconclusive: 25.1 µM [inhibitor, partial curve, poor fit] | –
26 | Cc1nc2cc(NC(C)C(=O)Nc3ccc(C#N)cc3)ccc2o1 (stereo not drawn) | inconclusive: 39.8 µM [inhibitor, single point] | –
27 | Cc1ccc(C(=O)N2CCC(c3nc4c(nnn4Cc4ccc5c(c4)OCO5)c(=O)[nH]3)CC2)cc1 | – | inactive: 19.5%
28 | O=C(NCc1nnc2ccc(-c3ccccc3)nn12)c1ccc(Cl)s1 | active: 22.4 µM | –
29 | C/C(=N/NC(=S)NC(C)C)c1ccc(C2CCCCC2)cc1 | – | inactive: 16.1%
30 | c1ccc(CNc2ncncc2-c2nc(-c3ccccc3)no2)cc1 | inconclusive: 25.1 µM [inhibitor, single point] | –
31 | O=C(Cn1ccn2nc(-c3ccc(F)cc3)c(CO)c2c1=O)NCc1ccccc1Cl | active: 28.2 µM | –
32 | NC1(C(=O)NCc2nc(-c3cccc(F)c3)c(-c3ccccn3)[nH]2)CCC1 | inconclusive: 12.6 µM [inhibitor, partial curve] | –
33 | CCOc1ccc(CC(=O)NCc2nnc3ccc(-c4ccccc4)nn23)cc1 | – | inactive: -4.16%
34 | O=C(Nc1cccc(F)c1)N1Cc2[nH]cnc2C[C@H]1c1nc(-c2cccc([N+](=O)[O-])c2)no1 | inconclusive: 39.8 µM [inhibitor, single point] | –
35 | CC(C)Nc1nc(-c2cccnc2)nc(-c2ccc(Cl)cc2)c1C#N | inconclusive: 25.1 µM [inhibitor, partial curve, poor fit] | –
36 | CCOc1cc(-c2nnc(SCC(=O)NC3CCCC3)nc2-c2ccc(OC)c(OCC)c2)ccc1OC | inconclusive: 35.5 µM [inhibitor, single point] | –
37 | CNc1ccc(-c2noc([C@@H]3CCCN3Cc3cccc(OC)c3)n2)cn1 | inconclusive: 35.5 µM [inhibitor, single point] | –
38 | O=c1[nH]nc(-c2ccco2)c2c1Nc1nnnn1C2c1cccc(F)c1 (stereo not drawn) | inconclusive: 25.1 µM [inhibitor, partial curve, poor fit] | –
39 | O=C(Cn1c(=O)n(Cc2cccs2)c(=O)c2cccnc21)Nc1ccc(F)cc1 | inconclusive: 6.31 µM [inhibitor, partial curve, poor fit] | –
40 | N#Cc1ccccc1-c1cc2c(ccn2Cc2ccncc2)c(N2CCOCC2)n1 | inconclusive: 39.8 µM [inhibitor, partial curve, poor fit] | –
41 | O=C(c1cccc2[nH]ccc12)N1CCC(c2noc(C3CC3)n2)C1 (stereo not drawn) | active: 22.4 µM | –
42 | CCN(CC)c1ccc(C(=S)N(C)C)cc1 | – | inactive: -28.5%
43 | Cc1ccc(CNC(=O)C2CCN(S(=O)(=O)c3ccc4[nH]c(=O)ccc4c3)CC2)cc1 | inconclusive: 14.1 µM [inhibitor, partial curve, poor fit] | –
